Details: when >10 µmol/L was utilized

Cc1cccc(NC(=O)c2sc(=S)n3c2[nH]c(=O)c2cc4c(cc23)OCO4)c1 [F0393]
cytotoxicity: considerable cytotoxicity

Source: publication PMC8983325 (Protein & Cell, 2022)
